For 32 sequences, binding signal results are on record in PMC12820563, “FoxP3 forms a head-to-head dimer in vivo and stabilizes its multimerization on adjacent microsatellites”.

The list shows a part of the results.

In this assay the target is T1, MBP-FoxP1dN (Mus musculus, UniProt P58462 326-579).
T1 sequence: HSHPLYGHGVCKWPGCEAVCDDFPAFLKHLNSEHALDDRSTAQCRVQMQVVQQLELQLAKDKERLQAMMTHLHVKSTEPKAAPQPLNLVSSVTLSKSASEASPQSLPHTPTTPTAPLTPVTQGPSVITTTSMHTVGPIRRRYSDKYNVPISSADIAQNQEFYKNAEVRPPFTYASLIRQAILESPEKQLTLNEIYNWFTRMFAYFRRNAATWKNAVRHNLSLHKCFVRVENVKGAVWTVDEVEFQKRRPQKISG
The assay can be described thus: PD-seq (MBP pull-down with sequencing); 20 mM Tris-HCl pH 7.5, 100 mM NaCl, 1.5 mM MgCl2, 0.4 uM protein, 0.1 uM dsDNA library, 30 min, room temperature, amylose pull-down; high values mean tight binding. The note with it: protein: recombinant; tags: His6-MBP; chain copies: 2; dsDNA, one strand shown. In outline: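 A fragment of mouse FoxP3 or FoxP1 without its N-terminus, carrying a His6-MBP tag and produced in E. coli, was combined at 0.4 µM with a 0.1 µM degenerate double-stranded DNA library filled in with Klenow. The mixture sat for 30 min at room temperature in Tris pH 7.5 buffer containing NaCl and MgCl2. Protein–DNA complexes were captured on amylose resin, washed three times, and the DNA was freed with proteinase K, barcoded by PCR and sequenced on Illumina. Binding is expressed as reads-per-million enrichment of pull-down over input, with replicates pooled.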
In the case of “GATGATTGTTCTCCCAGCTGATGAATTATAGTTCTCGAGTAAACAAATTTTCCTAATCTTTCTGTTCAAGCGCCATCTAC”, the binding signal was 0.973 RPM ratio (pull-down/input).

Take “GATGATTGTTCTCCCAGCTGATGAATTTCTGAGCTCGAGTAAACAAATTTTCCTAATCTTTCTGTTCAAGCGCCATCTAC”: the binding signal was 0.746 RPM ratio (pull-down/input).

Consider “GATGATTGTTCTCCCAGCTGATGAATTATGAACTTCGAGTAAACAAATTTTCCTAATCTTTCTGTTCAAGCGCCATCTAC”, for which the binding signal is 0.95 RPM ratio (pull-down/input).

On to “GATGATTGTTCTCCCAGCTGATGAATTTGCGCTGTCGAGTAAACAAATTTTCCTAATCTTTCTGTTCAAGCGCCATCTAC”, for which the binding signal is 0.978 RPM ratio (pull-down/input).

On to “GATGATTGTTCTCCCAGCTGATGAATTCTTCCATTCGAGTAAACAAATTTTCCTAATCTTTCTGTTCAAGCGCCATCTAC”, for which the binding signal was 0.96 RPM ratio (pull-down/input).

For the sequence “GATGATTGTTCTCCCAGCTGATGAATTCGTACATTCGAGTAAACAAATTTTCCTAATCTTTCTGTTCAAGCGCCATCTAC”, the binding signal is 1.1 RPM ratio (pull-down/input).

As to “GATGATTGTTCTCCCAGCTGATGAATTCCCTAGCTCGAGTAAACAAATTTTCCTAATCTTTCTGTTCAAGCGCCATCTAC”, the binding signal was 0.679 RPM ratio (pull-down/input).

Turning to “GATGATTGTTCTCCCAGCTGATGAATTCGTGTTCTCGAGTAAACAAATTTTCCTAATCTTTCTGTTCAAGCGCCATCTAC”, the binding signal is 0.9 RPM ratio (pull-down/input).

Consider “GATGATTGTTCTCCCAGCTGATGAATTACCACTCTCGAGTAAACAAATTTTCCTAATCTTTCTGTTCAAGCGCCATCTAC”, for which the binding signal was 0.961 RPM ratio (pull-down/input).

For the sequence “GATGATTGTTCTCCCAGCTGATGAATTCGTCCTGTCGAGTAAACAAATTTTCCTAATCTTTCTGTTCAAGCGCCATCTAC”, the binding signal was 0.78 RPM ratio (pull-down/input).

Consider “GATGATTGTTCTCCCAGCTGATGAATTTGTTGTTTCGAGTAAACAAATTTTCCTAATCTTTCTGTTCAAGCGCCATCTAC”, for which the binding signal was 2.54 RPM ratio (pull-down/input).

In the case of “GATGATTGTTCTCCCAGCTGATGAATTCTGCGCTTCGAGTAAACAAATTTTCCTAATCTTTCTGTTCAAGCGCCATCTAC”, the binding signal was 0.884 RPM ratio (pull-down/input).

For the sequence “GATGATTGTTCTCCCAGCTGATGAATTCAGCCGATCGAGTAAACAAATTTTCCTAATCTTTCTGTTCAAGCGCCATCTAC”, the binding signal was 0.787 RPM ratio (pull-down/input).

On to “GATGATTGTTCTCCCAGCTGATGAATTGCCAACCTCGAGTAAACAAATTTTCCTAATCTTTCTGTTCAAGCGCCATCTAC”, for which the binding signal is 0.93 RPM ratio (pull-down/input).

As for “GATGATTGTTCTCCCAGCTGATGAATTTGGCCAATCGAGTAAACAAATTTTCCTAATCTTTCTGTTCAAGCGCCATCTAC”, the binding signal was 0.911 RPM ratio (pull-down/input).

In the case of “GATGATTGTTCTCCCAGCTGATGAATTCGACCGCTCGAGTAAACAAATTTTCCTAATCTTTCTGTTCAAGCGCCATCTAC”, the binding signal is 0.76 RPM ratio (pull-down/input).

For the sequence “GATGATTGTTCTCCCAGCTGATGAATTGGCCGGCTCGAGTAAACAAATTTTCCTAATCTTTCTGTTCAAGCGCCATCTAC”, the binding signal was 0.769 RPM ratio (pull-down/input).

As to “GATGATTGTTCTCCCAGCTGATGAATTACCAGTATCGAGTAAACAAATTTTCCTAATCTTTCTGTTCAAGCGCCATCTAC”, the binding signal is 1.09 RPM ratio (pull-down/input).

Turning to “GATGATTGTTCTCCCAGCTGATGAATTACTAAGGTCGAGTAAACAAATTTTCCTAATCTTTCTGTTCAAGCGCCATCTAC”, the binding signal is 1.03 RPM ratio (pull-down/input).

“GATGATTGTTCTCCCAGCTGATGAATTATGTACGTCGAGTAAACAAATTTTCCTAATCTTTCTGTTCAAGCGCCATCTAC”: the binding signal is 1.26 RPM ratio (pull-down/input).

In the case of “GATGATTGTTCTCCCAGCTGATGAATTCGTGCACTCGAGTAAACAAATTTTCCTAATCTTTCTGTTCAAGCGCCATCTAC”, the binding signal is 0.937 RPM ratio (pull-down/input).

Regarding “GATGATTGTTCTCCCAGCTGATGAATTGGCTTTCTCGAGTAAACAAATTTTCCTAATCTTTCTGTTCAAGCGCCATCTAC”, the binding signal was 0.862 RPM ratio (pull-down/input).

“GATGATTGTTCTCCCAGCTGATGAATTTTCTTTTTCGAGTAAACAAATTTTCCTAATCTTTCTGTTCAAGCGCCATCTAC”: the binding signal was 1.03 RPM ratio (pull-down/input).

Turning to “GATGATTGTTCTCCCAGCTGATGAATTCTGATGTTCGAGTAAACAAATTTTCCTAATCTTTCTGTTCAAGCGCCATCTAC”, the binding signal was 1.22 RPM ratio (pull-down/input).

As for “GATGATTGTTCTCCCAGCTGATGAATTAAACCGGTCGAGTAAACAAATTTTCCTAATCTTTCTGTTCAAGCGCCATCTAC”, the binding signal was 0.788 RPM ratio (pull-down/input).

For “GATGATTGTTCTCCCAGCTGATGAATTAATTGACTCGAGTAAACAAATTTTCCTAATCTTTCTGTTCAAGCGCCATCTAC”, the binding signal was 1.04 RPM ratio (pull-down/input).

On to “GATGATTGTTCTCCCAGCTGATGAATTATGCACATCGAGTAAACAAATTTTCCTAATCTTTCTGTTCAAGCGCCATCTAC”, for which the binding signal was 1.34 RPM ratio (pull-down/input).

Turning to “GATGATTGTTCTCCCAGCTGATGAATTAGGCAAGTCGAGTAAACAAATTTTCCTAATCTTTCTGTTCAAGCGCCATCTAC”, the binding signal is 0.913 RPM ratio (pull-down/input).

For the sequence “GATGATTGTTCTCCCAGCTGATGAATTTCGAACCTCGAGTAAACAAATTTTCCTAATCTTTCTGTTCAAGCGCCATCTAC”, the binding signal is 0.816 RPM ratio (pull-down/input).

“GATGATTGTTCTCCCAGCTGATGAATTACTTAGTTCGAGTAAACAAATTTTCCTAATCTTTCTGTTCAAGCGCCATCTAC”: the binding signal was 1.11 RPM ratio (pull-down/input).

Take “GATGATTGTTCTCCCAGCTGATGAATTCGGTCTATCGAGTAAACAAATTTTCCTAATCTTTCTGTTCAAGCGCCATCTAC”: the binding signal is 0.854 RPM ratio (pull-down/input).

As to “GATGATTGTTCTCCCAGCTGATGAATTGTAAACATCGAGTAAACAAATTTTCCTAATCTTTCTGTTCAAGCGCCATCTAC”, the binding signal is 2.78 RPM ratio (pull-down/input).
